# Experimental data reported in PubChem BioAssay AID662 (National Center for Advancing Translational Sciences (NCATS), 2007).
# About 1,800 (2.5%) of roughly 71,000 compounds were called active. The inconclusive results got no clear call from the source; some entries with a clear call stand among them for comparison. The call rests on the fitted dose curve; in most records, active means well fitted activation curve with a large enough effect in the signal ratio, with a control signal flat (not every such curve was filed as active); inconclusive means small, poorly fitted or top-dose-only effect, or effect the other way, or a change in a side signal; inactive means flat fitted curve, though single readings scatter; the % refers to the signal ratio. Potencies of inconclusive entries are doubtful fits and often do not repeat.
# Test: Cell signaling CRE-BLA (Fsk stim); on activity change, negative = inhibition: % of control where 0% means no effect
# Details: CHO CRE-bla reporter (cAMP response element driving beta-lactamase), forskolin EC10, beta-lactamase ratio; activity change, negative = inhibition: at 38.2 µM (top of the series) unless noted
# Summary of the method: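 The 460nm/530nm emission ratio after CCF4 loading defined %Activity, from which AC50 values were obtained. CRE-bla CHO cells received compound dilution series together with an EC10 level of NKH 477 for 3 hours at 37 degrees Celsius.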
# Potency means the concentration at half of the fitted maximal effect; tags describe the fitted curve by direction and shape.
SMILES,"activity change, negative = inhibition",Potency
COc1ccc(NC(=O)Cc2cccs2)c(OC)c1,inconclusive: 1.14% [at 7.6 µM],–
O=C(c1n[nH]c2c1CCCC2)n1ccnc1,inconclusive: 24.7%,–
COC(=O)c1ccccc1NC(=O)Cn1cnc2cc(C)c(C)cc21,inconclusive: 23.4% [at 7.6 µM],–
CCCn1c(=O)c(Cc2ccccc2)c(O)c2ccccc21,inactive,–
Cc1cc(NC(=O)CSc2nnc(C3CC3)n2C)no1,inconclusive: -12.3%,–
N#CCSc1nc2c(c(C3CC=CCC3)c1C#N)CCC2 (stereo not given),–,"inconclusive: 6.31 µM [rising, partial curve]"
O=C(OCc1cc(=O)n2cc(Br)ccc2n1)C1COc2ccccc2O1 (stereo not given),inactive,–
Cn1cc(-c2nc3cnc(OCc4ccccc4)nc3n(CCC#N)c2=O)c2ccccc21,–,"inconclusive: 2 µM [rising, partial curve]"
COc1ccc(-c2coc3cc(O)cc(O)c3c2=O)cc1,inconclusive: -9.24%,–
CCOC(=O)N1CCN(C(=O)c2ccc(NC(=O)c3ccc(C)cc3)cc2)CC1,inconclusive: 3.43%,–
CCC(=O)/C=C1\Sc2ccc(OC)cc2N1CC,inconclusive: -0.968% [at 7.6 µM],–
C=CCNc1ncnc2c1cnn2-c1ccc(Cl)cc1,–,"inconclusive: 6.31 µM [rising, partial curve]"
COc1ccccc1N1CCN(CCN2C(=O)CC3(CCCC3)CC2=O)CC1,inconclusive: -18.3%,–
Cc1cc(C2C(C#N)=C(N)SC(N)=C2C#N)c(C)s1,–,"inconclusive: 10 µM [rising, single point]"
Nc1c(S(=O)(=O)O)cc(Nc2cccc(S(N)(=O)=O)c2)c2c1C(=O)c1ccccc1C2=O,inactive: 13.3% [at 7.6 µM],–
CCCCCn1c(=O)c(C(=O)OCC)c(O)c2ccccc21,–,"inconclusive: 3.98 µM [rising, single point]"
CN1CCN(c2ncc3nc(-c4cccc(C#N)c4)c(=O)n(CCc4ccccc4)c3n2)CC1,–,"inconclusive: 12.6 µM [rising, partial curve]"
Cc1cc(-c2nnc(-c3cc4ccccc4oc3=O)o2)c(C)n1-c1ccccc1,–,"inconclusive: 15.8 µM [rising, partial curve]"
CCOCCn1c(N2CCN(c3ccc(OC)cc3)CC2)nc2c1c(=O)n(C)c(=O)n2C,inconclusive: 22.3%,–
Cc1ccc2cc3cc(C(=O)N(C)C4CCCCC4)oc3nc2c1,inconclusive: -25.9%,–
CC(C)(CN1CCCCC1)NS(=O)(=O)c1ccc(Cl)cc1,inconclusive: -10.9%,–
CN(Cc1ccco1)c1cc(-c2cccnc2)ncn1,inconclusive: 26.5%,–

SMILES,"activity change, negative = inhibition",Potency
Nc1ccc2c(C(F)(F)F)cc(=O)oc2c1,–,"inconclusive: 20 µM [rising, single point]"
O=C(CN(Cc1ccco1)C(=O)CNS(=O)(=O)c1ccccc1)NCc1ccccc1,inconclusive: -11.7%,–
COCCn1c(=O)c(CCc2ccccc2)nc2cnc(OC)nc21,–,"inconclusive: 12.6 µM [rising, single point]"
Cn1cccc1C1NC(=O)c2c(sc3c2CCC(C(C)(C)C)C3)N1 (stereo not given),inactive,–
O=c1c(-c2cccs2)nc2cnc(N3CCOCC3)nc2n1Cc1cccs1,–,"inconclusive: 3.98 µM [rising, partial curve]"
COc1cc2nc(C)sc2cc1SC,–,"inconclusive: 6.31 µM [rising, partial curve]"
CCOC(=O)c1c(C)[nH]c(C(=O)NCc2ccccc2OC)c1C,–,"inconclusive: 12.6 µM [rising, partial curve]"
CC(=O)N1CCN(c2ccc(Nc3nc(C)nc4c3oc3ccccc34)cc2)CC1,–,active: 1 µM
C=CCn1c(-c2ccccc2)nc2nc3ccccc3nc21,–,active: 2 µM
COC(=O)NCCOC(=O)N(O)c1ccc(Br)cc1,–,"inconclusive: 20 µM [rising, single point]"
CC(=O)Nc1nc(-c2cccs2)cs1,inactive,–
COc1ccc(OC)c(CNC(=O)COc2cc(=O)n(C)c3ccccc23)c1,–,active: 10 µM
CCN1CCN(CC(O)COc2ccc(C)c(C)c2)CC1 (stereo not given),inconclusive: -15.9%,–
CCOc1ccc(N(CC(=O)NC(C)(C)C)S(=O)(=O)c2c(C)noc2C)cc1,inactive,–
C[C@H](O)C(=O)C1=Nc2c(nc(N)[nH]c2=O)NC1,inactive,–
CCOC(=O)N1CCC(NC(=O)c2cc3c(-c4ccccc4F)nn(C)c3s2)CC1,inactive,–
O=C(Nc1ccc(F)cc1)NC1CCN(Cc2nnnn2Cc2ccco2)CC1,inactive,–
CN(C)c1ccc(C(=O)Nc2ccc(S(=O)(=O)NC3=NCCCCC3)cc2)cc1,inactive,–
O=C1C(=C2CCCCC2)SC(=S)N1Cc1ccco1,inconclusive: 11.1% [at 7.6 µM],–
CN(C)CCC(c1ccc(Cl)cc1)c1ccccn1 (stereo not given),inactive,–
Cc1ccccc1-c1nnc(SCC(=O)Nc2ccc(Cl)cc2)n1N,inconclusive: -22.8%,–
CCOc1cc(S(=O)(=O)N2CCC(Cc3ccccc3)CC2)c(OCC)cc1-n1cnnn1,inactive,–

SMILES,"activity change, negative = inhibition",Potency
CCOC(=O)c1sc(NC(=O)c2cc(S(=O)(=O)N3CCOCC3)ccc2C)nc1C,inconclusive: 24.5%,–
Cc1ccc(-c2csc3ncnc(Sc4nnc(CN5CCCCCC5=O)o4)c23)cc1,–,"inconclusive: 2.51 µM [falling, partial curve]"
COc1cccc(Cn2c(=O)c(-c3cc(F)cc(F)c3)nc3cnc(OC)nc32)c1,inconclusive: 13.1%,–
Cc1ccc(C(=O)OCC(=O)N2CC(=O)Nc3ccccc32)s1,inactive,–
CC(C)(C)n1ncc2c(=O)n(Cc3c(F)cccc3Cl)cnc21,–,"inconclusive: 12.6 µM [rising, partial curve]"
O=c1c(-c2ccc(F)cc2)nc2cnc(Nc3ccccc3)nc2n1Cc1cccs1,–,"inconclusive: 0.794 µM [rising, full curve]"
COc1ccc2c(c1)CCc1c(C(=O)NCCCn3ccnc3)noc1-2,inconclusive: 20.2%,–
CN1CCN(C2=C(Cl)C(=O)N(c3ccc(Cl)cc3)C2=O)CC1,inconclusive: -13%,–
Cc1cccc(CNc2ncnc3ccc(-c4c(C)noc4C)cc23)c1,–,"inconclusive: 10 µM [rising, partial curve]"
CSc1nc(C)cc(-n2ccc(=O)[nH]c2=O)n1,inconclusive: 1.97%,–
COc1ccc2nc(NC(=O)CN(c3ccc(C)cc3)S(=O)(=O)c3c(C)nn(C)c3C)sc2c1,–,"inconclusive: 10 µM [rising, single point]"
CC(=O)N1CCC2(CC1)CCN(c1ncccn1)CC2,inactive,–
O=C(CN1CCNCC1)Nc1ccccc1Cl,inconclusive: -8.6%,–
CCNC(=O)NC(=O)C(C)Oc1ccc(C(=O)OC)cc1 (stereo not given),inconclusive: -10.2%,–
O=c1cc(CO)oc(CN2CCN(c3ccccc3)CC2)c1O,inconclusive: -15%,–
COc1cccc(C(=O)Nc2c(C(N)=O)oc3ccccc23)c1,–,active: 5.01 µM
COc1ccccc1NC(=O)C1=C(C)Nc2nnnn2C1c1cccc(Br)c1 (stereo not given),–,"inconclusive: 5.01 µM [falling, partial curve]"
O=C(Nc1nc2ccccc2[nH]1)C1CC(=O)N(c2ccc3c(c2)OCCO3)C1 (stereo not given),inconclusive: -23.6%,–
c1cncc(-c2ccc3ncnc(NCCN4CCOCC4)c3c2)c1,inconclusive: 23%,–
CC1=C(C(=O)OCCOc2ccccc2)C(c2ccc(C)o2)C2=C(CC(C)(C)CC2=O)N1 (stereo not given),inactive,–
O=C(CC1Nc2ccccc2NC1=O)NCCCN1CCCCCC1 (stereo not given),inactive,–
COc1cccc(NC(=O)CCSc2nnc3scc(-c4ccccc4)n23)c1,–,active: 0.398 µM

SMILES,"activity change, negative = inhibition",Potency
Cc1cc(N(C)C)c(C#N)c(NCc2ccccc2)n1,–,"inconclusive: 20 µM [rising, single point]"
O=C(O)CCCC(=O)N(Cc1ccccc1)Cc1ccccc1,inconclusive: 9.26% [at 7.6 µM],–
Cc1cc(C)nc(Nc2ccc(N3CCOCC3)cc2)n1,inactive,–
O=[N+]([O-])c1cc(Cl)c(Cl)c(Cl)c1Cl,inconclusive: -25.2%,–
N#Cc1c(N)c(C(=O)c2ccc(Br)cc2)n2c1CCC2,inactive,–
CCN(CC)c1nc2n(c(=O)n1)CCN2CC,inactive,–
O=C(O)c1ccccc1Nc1cccc(OCc2ccc3ccccc3n2)c1,–,"inconclusive: 1.26 µM [rising, full curve, poor fit]"
Cn1c(C(=O)NC2CC2)cc2c(=O)n(C)c3ccccc3c21,–,active: 5.01 µM
O=C(Oc1ccc(-c2nnco2)cc1)N(c1ccccc1)c1ccccc1,inconclusive: 22%,–
CCNc1nc(Oc2ccc(=O)n(-c3ccccc3)n2)nc(N2CCOCC2)n1,–,"inconclusive: 15.8 µM [rising, partial curve]"
CCOC(=O)C1=C(C)NC(=O)NC1/C=C/c1ccccc1 (stereo not given),inconclusive: 27.3%,–
CCCc1nc2ccccc2c(=O)n1/N=C/c1ccccc1O,inactive,–
CCOC(=O)N1CCC(Nc2nc3ccccc3n3cnnc23)CC1,–,"inconclusive: 10 µM [rising, single point]"
Cc1ccc(NCc2nnc(SCC(=O)NCc3ccco3)n2CC2CCCO2)cc1Cl (stereo not given),–,"inconclusive: 3.16 µM [rising, single point]"
CCOc1cc2[nH]c(=O)n(CCCCC(=O)NC3CCCCCC3)c(=O)c2cc1OCC,inactive,–
Cc1ccc(NC2SC(=O)N(Cc3cccc(C(=O)O)c3)C2=O)cc1 (stereo not given),inactive,–
Cc1ccc(-c2c3c(=O)n(C)c(=O)n(C)c3cn2-n2cnnc2)cc1,inconclusive: -13.1%,–
CCC(C)[C@H](NC(=O)NCc1ccco1)C(=O)O (stereo not given in full),inconclusive: -17.6%,–
COc1ccc(Cn2c(CCC(=O)O)nc3cccnc32)cc1,inconclusive: -2.01%,–
